In publication PMC5663917:
No constants are given. Whether binding was seen depends on the method and setting. Binding seen in cells or lysates may run through a third protein. Some entries that bind do so weakly or less than the wild type. For part of these data: Sequences can lack the tags named with a protein.

Protein sequences, listed by entry. Tags and fused reporters are not part of them. Residues count along the entry.
UniProt Q9NT62: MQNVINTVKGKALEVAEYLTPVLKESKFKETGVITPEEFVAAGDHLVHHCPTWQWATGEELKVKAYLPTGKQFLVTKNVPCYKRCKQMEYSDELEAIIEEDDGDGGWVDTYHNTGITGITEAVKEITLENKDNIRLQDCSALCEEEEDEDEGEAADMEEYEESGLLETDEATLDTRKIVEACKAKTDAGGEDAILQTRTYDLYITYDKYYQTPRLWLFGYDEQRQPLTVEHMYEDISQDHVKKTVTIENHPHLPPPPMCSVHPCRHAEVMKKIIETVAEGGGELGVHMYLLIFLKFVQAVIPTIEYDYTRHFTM
UniProt Q14457: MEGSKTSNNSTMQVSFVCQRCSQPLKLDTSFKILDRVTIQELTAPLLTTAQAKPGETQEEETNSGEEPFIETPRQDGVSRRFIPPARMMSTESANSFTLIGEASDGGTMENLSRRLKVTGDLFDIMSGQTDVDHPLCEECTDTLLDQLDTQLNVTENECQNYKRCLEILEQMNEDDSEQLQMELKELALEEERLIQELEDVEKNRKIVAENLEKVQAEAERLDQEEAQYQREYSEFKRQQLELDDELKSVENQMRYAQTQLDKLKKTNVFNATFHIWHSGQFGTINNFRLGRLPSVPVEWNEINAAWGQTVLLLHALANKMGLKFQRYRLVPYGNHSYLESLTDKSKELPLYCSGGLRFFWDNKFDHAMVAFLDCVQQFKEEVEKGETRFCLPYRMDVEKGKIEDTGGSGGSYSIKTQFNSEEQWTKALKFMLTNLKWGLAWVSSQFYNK
UniProt P28068, residues 19-263: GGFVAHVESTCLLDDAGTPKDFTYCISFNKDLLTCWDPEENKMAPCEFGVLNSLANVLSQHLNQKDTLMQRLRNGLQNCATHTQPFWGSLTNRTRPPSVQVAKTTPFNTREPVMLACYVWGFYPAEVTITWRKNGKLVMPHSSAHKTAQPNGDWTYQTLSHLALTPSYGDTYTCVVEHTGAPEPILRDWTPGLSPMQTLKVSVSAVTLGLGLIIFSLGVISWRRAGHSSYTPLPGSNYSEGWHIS

Tests used:
HA-tagged ATG7 (human) [1] = molecular target: T1, HA-tagged ATG7 (human) (UniProt O95352); assay: co-IP; coimmunoprecipitation of DMA or DMB with ATG7 (Supplementary Fig. S3C); cells, tags and IP antibody not shown
T1 sequence: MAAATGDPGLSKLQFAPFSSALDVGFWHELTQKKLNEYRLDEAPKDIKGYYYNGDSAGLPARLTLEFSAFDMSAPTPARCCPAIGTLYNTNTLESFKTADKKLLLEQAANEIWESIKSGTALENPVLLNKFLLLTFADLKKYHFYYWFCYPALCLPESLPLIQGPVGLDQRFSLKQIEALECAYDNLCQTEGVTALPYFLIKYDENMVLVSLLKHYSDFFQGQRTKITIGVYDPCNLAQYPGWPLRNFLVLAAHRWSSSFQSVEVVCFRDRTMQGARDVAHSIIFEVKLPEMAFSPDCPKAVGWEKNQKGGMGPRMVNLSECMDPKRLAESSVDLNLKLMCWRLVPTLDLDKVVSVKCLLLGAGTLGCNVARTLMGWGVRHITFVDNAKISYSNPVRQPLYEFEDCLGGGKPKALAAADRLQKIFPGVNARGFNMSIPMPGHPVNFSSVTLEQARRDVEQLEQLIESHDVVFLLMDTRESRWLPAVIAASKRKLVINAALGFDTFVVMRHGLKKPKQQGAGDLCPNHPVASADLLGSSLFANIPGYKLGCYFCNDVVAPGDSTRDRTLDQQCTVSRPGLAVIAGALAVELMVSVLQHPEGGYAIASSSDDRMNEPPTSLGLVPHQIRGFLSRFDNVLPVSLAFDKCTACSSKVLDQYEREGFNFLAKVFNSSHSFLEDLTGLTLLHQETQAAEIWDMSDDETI

HA-tagged ATG3 (human) = HA-tagged ATG3 (human) (UniProt Q9NT62); assay: co-IP; HEK293T co-transfected with pcDNA3.1-DMB and HA-tagged ATG proteins; IP anti-HA, blot anti-DMB (Fig. 6A); for HA-ATG7 also IP anti-DMB, blot anti-HA (Fig. 6B); lysis buffer 1.0% Nonidet P40, 20 mM Tris-HCl pH 8.0, 10% glycerol, 150 mM NaCl; 4 °C
HA-tagged ATG7 (human) [2] = molecular target: T1, HA-tagged ATG7 (human); assay: as above
[3] = molecular target: HA-tagged Beclin1 (human) (UniProt Q14457); assay: as above
[4] = molecular target: T2, endogenous ATG7 (human (endogenous in MT2 and PMA-THP1)) (UniProt O95352); assay: co-IP; endogenous proteins, MT2 cell lysate; IP anti-ATG7, blot anti-DMB (Fig. 6C); for Sirt1 cells transfected with control siRNA or DMB siRNA (Supplementary Fig. S4C, IP antibody not shown)
T2 sequence: T1 sequence

[5] = molecular target: T2, endogenous ATG7 (human (endogenous in MT2 and PMA-THP1)); assay: co-IP; endogenous proteins, lysate of PMA-THP1 cells co-cultured with MT2 cells for 24 h; IP anti-ATG7, blot anti-DMB (Fig. 6D); for Sirt1 cells transfected with control siRNA or DMB siRNA (Supplementary Fig. S4D, IP antibody not shown)

binding (HA-tagged ATG7 (human) [1]) | binding (HA-tagged ATG3 (human)) | binding (HA-tagged ATG7 (human) [2]) | binding [3] | binding [4] | binding [5] | Substance
binds | no binding | binds | no binding | – | – | HLA-DMB expressed from pcDNA3.1-DMB (from UniProt P28068 19-263)
– | – | – | – | binds | binds | endogenous HLA-DMB (from UniProt P28068 19-263)
